Laboratory results: the supplement of paper PMC11417369
± gives the standard deviation of the averaged measurements. Some of the results follow.

tested on: PfAP2-EXP AP2 domain (GST-tagged); assay: gcPBM binding intensity (ln(normalized median fluorescence intensity)); higher = stronger DNA binding
In short: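 Probes on an Agilent 4 × 180k array were primer-extended, double-stranded and 36 bp long, taken from intergenic genomic regions, with negative controls added. GST-tagged P. falciparum DNA-binding domains from E. coli, about 25 μg on average, were applied to the array for 1 h in 1× PBS containing 1% milk, 0.2 mg/ml BSA, 0.5% salmon testes DNA and 0.03% Triton X-100. Binding intensity, obtained after Alexa488 anti-GST antibody detection and a 488 nm scan, is the highest Masliner-normalised natural-log median intensity across replicate spots of either probe orientation.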

| Sequence | gcPBM binding intensity (ln) |
| --- | --- |
| AAAAAAATTAATGTGTGTACTTAGATATAATGTTTA [XGTACX_site8862] | 8.3 ± 0.39 |
| TTACAAATATTATAAAGTACAAACCAGTAGATTTTG [XGTACX_site2272] | 8.27 ± 0.42 |
| TTTTTTTTTTTTAAAAGTACATAGTAGTAATTATAG [XGTACX_site4232] | 8.09 ± 0.29 |
| TCATTCTAAATATAAACACACATAAATATGTACATT [CACACA_site7555] | 8.56 ± 0.42 |
| TATTTTTTTTTTTTTTTTTTTACCTTTCCACTCAAA [CACACA_negctrl_site1454] | 8.2 ± 0.5 |
| ATTATATATACATATACACACATACGTACATACATA [CACACA_site9194] | 8.8 ± 0.4 |
| GTGAAGGTTTATATGTGTACATATATGTATTATATA [XGTACX_site326] | 8.63 ± 0.3 |
| ATTTCATACAGACACACACACAAACAAACATATATA [CACACA_site979] | 8.93 ± 0.63 |
| TTTAATAAATTGTGTACACAAAACATATAAATTTCG [CACACA_site5644] | 8.69 ± 0.19 |
| GACATTTCTTGGGATACATGCATGTCCCAGAACAAA [TGCATGCA_site271] | 9.14 ± 0.39 |
| TTTTTTTTTTTTAATGCACACAGTGAACTTTTACTT [CACACA_site3567] | 8.56 ± 0.18 |
| ATTATCAAGACATTGCGTACTTAAAAAAAAAAAAAT [XGTACX_site6347] | 8.51 ± 0.4 |
| CATATATAATAATATTGTACATATATAATAATAATA [XGTACX_site3338] | 8.4 ± 0.35 |
| TTATTATTCATATATTCACACATTAAAATTTTTCAA [CACACA_site4243] | 8.38 ± 0.4 |
| TGTATACATAATATTTGTACATATTGTTATATATAT [XGTACX_site740] | 8.57 ± 0.23 |
| AATATATATAATAATTGTACAATACGTATGTTATAT [XGTACX_site8745] | 8.87 ± 0.45 |
| TCCTATATCACAAATGTGCACAGAAAAAAAAAATAT | 9.1 ± 0.29 |
| ATATATATATACATACGTACACACAAATATTAAAAT [XGTACX_site4007] | 9.935 ± 0.078 |
| TTATAAAAAAAAAAAAAAAAGAAAATGAATTCACGA [CACACA_negctrl_site1248] | 8.29 ± 0.43 |
| TGTTATATATTATATACATGCACAAAAGCAACACAA [TGCATGCA_site1009] | 9.04 ± 0.22 |
| ATTTTATTTTTTGAGTGTACTAGTTCAACAACTCCG [XGTACX_site8600] | 8.72 ± 0.52 |
| TTCGACGAGAGCAAGTGTACTCTTGAATAATTTATA [XGTACX_site7613] | 8.31 ± 0.39 |

| Sequence | gcPBM binding intensity (ln) |
| --- | --- |
| ATAATATATATATGTAGTACGTATATAATTTTAATA [XGTACX_site5228] | 8.45 ± 0.39 |
| ATATTTATGACCGTACGTACCTAACAATACAATCAA [XGTACX_site4511] | 8.67 ± 0.099 |
| TGAATTTCAAAACAGTGTACATTAATATATATATAA [XGTACX_site7951] | 8.57 ± 0.39 |
| AATTAAAATTTTTTTTTTTTTTTTTTTTTTCTATTA [CACACA_negctrl_site1585] | 7.87 ± 0.58 |
| AAAAATAAAAAAAACACACATACCTTATTTTTGTTC [CACACA_site2634] | 8.98 ± 0.73 |
| AAATTGATATTATATATATATATATATATATATATA [GTGCAC_negctrl_site482] | 10 ± 0.42 |
| TATATATCCTTCTATGCATGCATATGGATAGATTTC [TGCATGCA_site58] | 9.65 ± 0.12 |
| TATATATAGAAACACACACACAAAAAAAAAAAAAAA [CACACA_site1506] | 8.24 ± 0.42 |
| ATTTAAAAAACTTTTAGCAAAAAAAAAAAATAATAA [TGCATGCA_negctrl_site191] | 8.45 ± 0.45 |
| TTGTTTTGCTAAAAATGTACTCTATATAAAAGCTTT [XGTACX_site4027] | 8.37 ± 0.28 |
| TATATATATTATATATGTACACATATGTGAGAATGA [XGTACX_site2992] | 9 ± 0.38 |
| ATTTATATGTAGATGTGTACTTAATTGTAATGTGTT [XGTACX_site6422] | 8.47 ± 0.37 |
| TATCAAAATAAATGCACACAAATTGCACATATCTAT [CACACA_site1097] | 8.43 ± 0.11 |
| CAAAAACATACCTACACACACAATATGTATAAATAA [CACACA_site7617] | 8.47 ± 0.59 |
| AACTTTTTTATATGCACACATAAACAAGGATATATA [CACACA_site2874] | 8.67 ± 0.2 |
| AAAAAAAAAAAAAACACACACACACCCATACACATA [CACACA_site2860] | 8.57 ± 0.33 |
| TATATATACATAAAAACATGCAATATATACACATTA [TGCATGCA_site444] | 8.46 ± 0.3 |
| CAAAAAATACGATGTTGTACTATGTATTCCTGATGT [XGTACX_site246] | 8.35 ± 0.28 |
| TACTTCGATAATAATCGTACATATATATTGTATTTA [XGTACX_site5700] | 8.63 ± 0.38 |
| TTTTCTTTTAAACATATATATATATATATATATATA [XGTACX_negctrl_site559] | 10.4 ± 0.23 |
| TGTAGACTACATAGTAGTACATAATATATACATATA [XGTACX_site367] | 8.32 ± 0.38 |
| TATATATATATAATTACACACAATGTTCTATATATA [CACACA_site3235] | 9.72 ± 0.16 |
